Some of the results follow.

In the experiment the test system is PfAP2-HC AP2 domain (GST-tagged). The experiment can be described thus: gcPBM binding intensity (ln(normalized median fluorescence intensity)); higher = stronger DNA binding. In a few lines:
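Binding intensity values are the highest Masliner-normalised natural-log median intensity among replicate spots of either probe orientation. The binding step lasted 1 h in 1× PBS with 1% milk, 0.2 mg/ml BSA, 0.5% salmon testes DNA and 0.03% Triton X-100, using GST-tagged P. falciparum DNA-binding domains expressed in E. coli on an Agilent 4 × 180k array of primer-extended double-stranded 36-bp intergenic genomic probes plus negative controls. Alexa488 anti-GST antibody and a 488 nm scan detected bound protein.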
For “GACTGCACTTTAAGCACACAAATATATTTTTTTTAT [CACACA_site1249]”, the “gcPBM binding intensity (ln)” value was 9.81.

For the sequence “TTCTATTATGTGACTCAATTCTTCATGGGTGTATAA [TGCATGCA_negctrl_site140]”, the “gcPBM binding intensity (ln)” value was 9.61.

On to “AATGTATTTATTTTTTGTACATATCGTGTGTGTATT [XGTACX_site1009]”, for which the “gcPBM binding intensity (ln)” value amounted to 10.5.

In the case of “TTTTTTTTTAAATATACACACACATTTATACATATA [CACACA_site9122]”, the “gcPBM binding intensity (ln)” value came out at 9.94.

With “TTTGGAATATAATATTGTACATATTATATATATATA [XGTACX_site3187]”, the “gcPBM binding intensity (ln)” value came to 9.55.

For the sequence “CCTCATCCACTATGCACACAAAAAAGAAATACACTA [CACACA_site3422]”, the “gcPBM binding intensity (ln)” value turned out to be 10.1.

With “TTTTTTTTTTTTTTAACACACATATATATATTTTTC [CACACA_site1922]”, the “gcPBM binding intensity (ln)” value stood at 9.62.

“TTCTCAAATATAATAAAATTATAAAGTGACCTAACT [GTGCAC_negctrl_site493]”: the “gcPBM binding intensity (ln)” value is 9.5.

In the case of “TAATGGATTATACGTGCACACATATATACAAATAAA [CACACA_site8116]”, the “gcPBM binding intensity (ln)” value worked out at 9.81.

“TTATTTATTTTTATATGTACACAAAAAAAAAAAAAA [XGTACX_site1459]”: the “gcPBM binding intensity (ln)” value came to 9.11.

In the case of “AATATATATAACGTTGGTACACAAAAATTATTAAAT [XGTACX_site8572]”, the “gcPBM binding intensity (ln)” value turned out to be 9.89.

In the case of “AAAAAAAACGGACACACACACATAAATATATATAAA [CACACA_site4260]”, the “gcPBM binding intensity (ln)” value was determined as 11.3.

As to “CACACCCACCAACACACACACAAAAAAAAAAAGAAA [CACACA_site500]”, the “gcPBM binding intensity (ln)” value was found to be 10.4.

For the sequence “ATATTTTATTTTAATACACACAAGTTATATAATCAC [CACACA_site780]”, the “gcPBM binding intensity (ln)” value is 9.75.

Take “AAAAGGTATAGAAACACACACACGTGAATATAGTTT [CACACA_site1905]”: the “gcPBM binding intensity (ln)” value is 10.5.

With “TACAAATTTATATAAAGTACAAAAAATAATAAAAAT [XGTACX_site7355]”, the “gcPBM binding intensity (ln)” value turned out to be 9.77.

In the case of “AAAAAAAAAAAAAGTGCACACATAAAAATATGATCT [CACACA_site8090]”, the “gcPBM binding intensity (ln)” value stood at 9.9.

For the sequence “ACATATGTTTTATGTAGTACTTATTTATTATTATAT [XGTACX_site7528]”, the “gcPBM binding intensity (ln)” value amounted to 9.79.

With “ATGAATAAATAGGTCACACACAAATATATATAAATA [CACACA_site2416]”, the “gcPBM binding intensity (ln)” value amounted to 10.6.

On to “TTGTTCGATATATGCACACAGTTTTGTTATTTTTCC [CACACA_site4972]”, for which the “gcPBM binding intensity (ln)” value amounted to 9.98.

As for “CACTACACTGTTAATAGTACATATATTTAAAAAAAA [XGTACX_site7371]”, the “gcPBM binding intensity (ln)” value came out at 9.61.

Regarding “AGAAAAAAAAAAAGTACACACATATAATATATATAT [CACACA_site2973]”, the “gcPBM binding intensity (ln)” value is 10.

On to “AGTTAATGAATAGGCACACATATATCTGTATAAATA [CACACA_site4448]”, for which the “gcPBM binding intensity (ln)” value turned out to be 9.83.

For the sequence “TCAAATAATAAGTATGCATGCTATATTTATATATAC [TGCATGCA_site920]”, the “gcPBM binding intensity (ln)” value came to 9.62.

For “TACATTTTACTTGTTACACACATATAAAATTAACCA [CACACA_site2922]”, the “gcPBM binding intensity (ln)” value is 9.74.

For the sequence “AAACGTACATAATACACACACATGTATACCTATAAA [CACACA_site7051]”, the “gcPBM binding intensity (ln)” value came out at 10.1.

On to “ATAAAAAATAAAATAAATAAAAAATATTTACCCTTA [TGCATGCA_negctrl_site396]”, for which the “gcPBM binding intensity (ln)” value worked out at 9.48.

On to “TGTAGAAATGGGTGCACACACATATAAAATCTATAT [CACACA_site7224]”, for which the “gcPBM binding intensity (ln)” value was found to be 10.

Consider “TAAAAAAATAAATATACACACATATATATATATATA [CACACA_site1089]”, for which the “gcPBM binding intensity (ln)” value amounted to 9.89.

Turning to “GGATTTATTATATATACACACATACAGATATATATA [CACACA_site5222]”, the “gcPBM binding intensity (ln)” value amounted to 9.78.

With “TCATTAAAAACTAAAAGTACTCAATATTATGAACAT [XGTACX_site7807]”, the “gcPBM binding intensity (ln)” value is 9.38.

As for “CATATATATTTGTTCACACACACACTAGAAAAAAAA [CACACA_site5380]”, the “gcPBM binding intensity (ln)” value turned out to be 10.2.

Take “ACATCATATTAAGAAAGTACAAAAAGAGAACATATA [XGTACX_site1268]”: the “gcPBM binding intensity (ln)” value worked out at 9.91.

As for “AAACAAAATTTATTTCAAAGTTAATAATTTTTATGT [CACACA_negctrl_site232]”, the “gcPBM binding intensity (ln)” value stood at 9.35.

For the sequence “ATATTGTAGATATTGTGTACATATTTTACAACTTTT [XGTACX_site7621]”, the “gcPBM binding intensity (ln)” value was 9.81.

As for “TATGTACACCCATATACACACCTCTATAATATATAT [CACACA_site4563]”, the “gcPBM binding intensity (ln)” value was 9.88.

For the sequence “TCAAAAAATATATTTGCACACTCAAAAAAAAAAAAA [CACACA_site860]”, the “gcPBM binding intensity (ln)” value was 9.53.

As for “TACACACATTACAGATGTACATAAAATTAAAAAAAT [XGTACX_site1804]”, the “gcPBM binding intensity (ln)” value amounted to 9.69.

In the case of “TATATATATATAAATACATGCATATAATTAATCCAT [TGCATGCA_site400]”, the “gcPBM binding intensity (ln)” value is 9.64.

“TTTTTCACATTTCAGTGTACATTTTAATCATATATA [XGTACX_site915]”: the “gcPBM binding intensity (ln)” value was determined as 9.67.

In the case of “CGACAAAAATTTTACAGTACAGTATAAACCTTTTTA [XGTACX_site290]”, the “gcPBM binding intensity (ln)” value worked out at 9.43.

Consider “TATTTTTTTAAGTGCAGTACACTTAATTTCCCCCAA [XGTACX_site7328]”, for which the “gcPBM binding intensity (ln)” value is 9.39.

As to “ATTTTTTTTTTTTTTTTAAGACAAACTCTTAATTTA [CACACA_negctrl_site1389]”, the “gcPBM binding intensity (ln)” value was 9.4.

Turning to “ATTCCAAAAAAATCAAGTACTAATTTATTATATTAC [XGTACX_site3920]”, the “gcPBM binding intensity (ln)” value was 9.47.

Source of the values: the supplement of paper PMC11417369.
